The supplement of paper PMC3334620
Over roughly 33,000 sequences, “E-score (-0.5 to 0.5)” has its median near -0.035; the highest 2% begin near 0.35. Some of the results follow.

molecular target: T1, Pdr3 (UniProt P33200); assay: PBM E-score (8-mer binding enrichment) (E-score (-0.5 to 0.5)); higher = stronger / more preferred TF binding; most listed sequences are background and not binding sites; details: protein concentration: 200 nM; construct: GST-full length
T1 sequence: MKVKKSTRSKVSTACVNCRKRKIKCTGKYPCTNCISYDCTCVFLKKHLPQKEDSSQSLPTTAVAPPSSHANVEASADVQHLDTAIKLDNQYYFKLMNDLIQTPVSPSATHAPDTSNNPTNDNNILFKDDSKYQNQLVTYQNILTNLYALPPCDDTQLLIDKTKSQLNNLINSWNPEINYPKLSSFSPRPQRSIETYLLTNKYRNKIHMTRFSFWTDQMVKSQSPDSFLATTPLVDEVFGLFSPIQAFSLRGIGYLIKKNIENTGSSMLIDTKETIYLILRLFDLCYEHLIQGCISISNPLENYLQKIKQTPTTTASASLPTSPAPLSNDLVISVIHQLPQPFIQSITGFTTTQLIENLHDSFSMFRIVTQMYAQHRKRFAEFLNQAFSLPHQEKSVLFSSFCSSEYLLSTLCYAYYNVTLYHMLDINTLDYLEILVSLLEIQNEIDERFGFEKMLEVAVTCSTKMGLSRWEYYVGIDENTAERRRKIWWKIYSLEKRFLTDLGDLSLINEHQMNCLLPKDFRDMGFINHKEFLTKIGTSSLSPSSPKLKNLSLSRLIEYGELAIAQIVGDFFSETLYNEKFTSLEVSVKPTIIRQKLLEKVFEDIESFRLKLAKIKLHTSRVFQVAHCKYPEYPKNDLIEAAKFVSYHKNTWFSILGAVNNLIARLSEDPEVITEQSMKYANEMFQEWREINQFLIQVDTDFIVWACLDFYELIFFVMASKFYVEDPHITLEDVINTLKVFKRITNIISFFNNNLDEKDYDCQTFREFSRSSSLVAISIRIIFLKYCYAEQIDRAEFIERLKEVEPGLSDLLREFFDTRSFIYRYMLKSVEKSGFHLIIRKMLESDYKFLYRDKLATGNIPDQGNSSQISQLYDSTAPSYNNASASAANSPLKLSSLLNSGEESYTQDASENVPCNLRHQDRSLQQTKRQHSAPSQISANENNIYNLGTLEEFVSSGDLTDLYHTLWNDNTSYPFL
Procedure, shortened: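 Full-length yeast transcription factors or their DNA-binding domains, GST-tagged and expressed with PURExpress, were applied at about 100-200 nM to universal all-10-mer Agilent arrays. These arrays had been made double-stranded by primer extension on fresh or once-stripped slides. Detection used fluorescent anti-GST, normalisation used masliner, and E-scores for ungapped eight-base words pooled with reverse complements came from the Universal PBM Analysis Suite.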

Sequence	PBM E-score
ATCAGCTA	-0.105
AGGATGTC	0.0246
GAAACATA	0.137
CGATGACA	0.0038
CTGGCGGA	0.131
GCGCACTA	0.101
GCGCGCCC	0.182
AAGTGAAA	-0.00211
CTACAACA	-0.177
ACTATTGC	0.0102
ATAGACGA	-0.122
CCATGAAG	-0.0463
CCGCTCAC	0.0879
ACGTTGGG	-0.226
ATCCTGCC	-0.0489
GCTTACAC	-0.159
GGAACAAC	0.302
TCAGGAGA	-0.114
CCGTAACG	-0.00149
GAGGGAAC	0.134
GAGGTAAA	-0.0806
ACGGTATA	0.0842
GGAGAGCC	-0.105
AACGTGTC	0.00256
GTGCGGCA	0.0901

Sequence	PBM E-score
ACAATAGC	-0.223
CCGTCTGA	0.0542
CCGTTTGA	0.116
ACTTAAGA	0.0238
ACTTCGTC	0.108
AGTTCCGA	0.456
GCATTTGA	0.0456
ACGGGGTA	0.0571
CCGACTTC	-0.0387
TGCATAAA	-0.00866
GGTTGTCA	-0.0131
AGGACCTC	0.0211
AAGACTCT	-0.182
GAAACGTA	0.0307
CCGAGGAC	0.169
GAACAGCA	-0.057
ACAGTCGT	-0.222
GTGGCGAA	0.106
ATGACAAC	0.0892
AAGCGACT	-0.246
GCTCAACA	-0.118
AAAATTCC	0.282
CACGAAGC	-0.13
ACTTGCCT	-0.0442
GTTTCCCA	0.0393

Sequence	PBM E-score
GATGCGAC	0.161
CGCGGCAC	0.385
GCAAACCC	-0.0541
GTAAGGGA	-0.0255
AAACGGGT	0.15
CTTAATCA	0.0785
AACGTTGC	-0.032
AGCAGCGA	0.0434
ACGACATA	-0.231
CTAGGACA	-0.0782
ACAATACT	0.015
AAGCTTCA	0.0605
CCTATAGG	0.0201
CACCGCCC	0.0947
CTTGCTGA	-0.166
CGAGTGTA	-0.0666
CGCGAGTC	-0.0192
ACACGGAT	0.302
ATAAGCCA	-0.271
ACAGGTGG	-0.155
CGCCCACA	0.0211
AGCGTTCG	-0.0672
ATAGGGCG	0.0728
AGAGCTGC	-0.14
AGTATAGC	-0.13

Sequence	PBM E-score
GATAATCC	0.189
AAGGTAGC	-0.271
CCTGCACG	-0.0585
ATGCTACA	-0.24
CTATTGAC	-0.153
CGTAAGAA	-0.0798
ACAGTTAC	-0.111
AACCACGC	-0.177
CTATGGTA	-0.00506
ACAATATC	0.0025
CGGTCGGA	0.316
GCTCACGA	-0.316
GATTGTCC	0.101
CCGCCGGA	0.415
AACCAAGC	-0.145
ATGCTGTC	-0.139
ATGCGTGA	-0.0935
TAAAGGAA	-0.119
CGTAGACC	-0.149
CGCGTACA	-0.157
AGTGCGTC	-0.195
GACCATAA	-0.131
CCTGAGTC	0.0204
GAGAACGC	-0.0114
ATGTGCCC	-0.00665

Sequence	PBM E-score
CATTACTC	-0.106
AGGAGCAG	-0.0955
GTAATGAA	-0.1
AAACCATT	-0.226
GCTTAAAC	-0.167
CCGCATAG	0.137
CTCGCCAA	-0.0834
ACCATGTA	0.00278
ATTTGGTG	-0.158
ATCACCGG	0.165
ATTCCGTA	0.417
CTTTGCTA	-0.191
GCGTTTAC	-0.146
CGCCGTAA	0.123
AAGTCCCT	-0.267
TCCCCTCA	0.0964
GGAGAAGA	0.00088
CCCCCTCC	-0.151
GTGAGGCA	-0.107
CTAAGGAA	-0.0825
ACACATGG	-0.089
AAACTCGA	-0.0616
CTGCTCGA	-0.176
ACCATATG	-0.267
TAGCCCCA	-0.102

Sequence	PBM E-score
CAGAAGAC	-0.186
CGCGTGCC	0.15
AGGTCCAG	0.00919
CAGCATGG	-0.00655
AGGCAGGG	-0.153
AGGAGAGG	-0.208
CAGCGAGC	0.0361
ATAGGAAT	-0.214
GAAATACC	0.0501
GAAGCCCC	0.0575
AGCCCGCC	0.154
GAACGCTC	-0.099
AGCAATCA	-0.0574
ACGCACCC	-0.0922
CTCTGTAC	-0.0809
ATCAGAAT	0.0827
CTACGTTC	-0.0566
CTTCATGA	0.00401
ATATGACC	-0.0521
CTTACTAC	-0.0454
ATCGCCCC	0.0454
GGAGGGAC	0.0402
CAGGACTG	-0.324
CCCCGGAC	0.33
CACCCGGA	0.412

Sequence	PBM E-score
CTTACAGC	-0.3
CCACTCAG	-0.0676
CAACGGAG	0.307
GTCTCCAA	-0.0715
CCGACGTA	0.0909
GTACTAAA	-0.0395
CCTCCTAC	-0.196
ATTTTTGG	-0.0953
ACTAGTGC	-0.0837
ACACTAAC	-0.0387
CACACCCA	-0.094
CGATAGAC	-0.058
AGGGGACT	-0.156
GTGCGCAA	-0.00317
ACCTTTGG	-0.274
GAGTTAGC	-0.0292
GCCCCGCC	0.274
CCTTCATA	0.021
ACTAACGA	-0.107
CGTCGTGA	-0.105
CAAGAAGC	0.0573
AGGCCTCA	-0.181
